The values that follow come from PubChem BioAssay AID1240 (Sanford-Burnham Center for Chemical Genomics, 2008).

Values joined by “and” are separate entries in the source; they are usually repeats but may differ in a detail not shown here. Identical values can stand only once. Among all 50,000 compounds or so, about 800 (1.6%) showed an effect of 50% or more. Some of the results follow.

In the assay the target is Bcl-2-like protein 10 (Homo sapiens) (UniProt Q9HD36). In words: TR3 peptide-Bcl-B binding displacers, biochemical primary FP assay, phenotype converters (AID 1240).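 Note: 0% = Bcl-B with tracer peptide and DMSO and 100% = tracer peptide lacking Bcl-B.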 Particulars: GST-Bcl-B / FITC-TR3 peptide fluorescence polarization; stronger effect = higher value; compound at 3.75 mg/L. For orientation: In fluorescence polarisation assays a small probe gives low polarisation when free and higher when bound to something large.
Chain of UniProt Q9HD36 (Q9HD36 whole entry, looked up): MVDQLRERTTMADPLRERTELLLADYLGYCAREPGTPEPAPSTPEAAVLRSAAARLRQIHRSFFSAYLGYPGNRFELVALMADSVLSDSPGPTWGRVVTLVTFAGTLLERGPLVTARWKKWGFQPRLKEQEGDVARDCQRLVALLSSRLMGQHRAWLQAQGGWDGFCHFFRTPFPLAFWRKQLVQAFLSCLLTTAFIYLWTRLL
In the case of `Cc1ccc(P(=O)(c2ccc(C)cc2)C(C)(C)O)cc1`, the displacement was -6.7%.
Take `CN1CCN(C(=O)c2nn3c(C(F)(F)F)c4c(nc3c2Cl)-c2ccccc2CC4)CC1`: the displacement is -1%.
In the case of `O=C(c1ccccc1)N1CCN(C2CCC(c3ccccc3)CC2)CC1` (stereo not drawn) it was -18.9%; in that of `O=C(Nc1ccccc1Cl)Nc1cccc2cccnc12`, -3.5%; in that of `CC(=O)OC1COC(n2ncc(=O)[nH]c2=S)C(OC(C)=O)C1OC(C)=O` (stereo not drawn), -8.5%.
In the case of `C=C(C)c1ccccc1NC1=NS(=O)(=O)c2ccccc21`, the displacement stood at 5.7%.
As for `O=C(NCc1ccccc1)c1ccc2nccnc2c1`, the displacement was 0.4%.
For the compound `C/C(=N\NC(=O)c1c[nH]c2ccccc12)c1ccco1`, the displacement was found to be 1.5%.
In the case of `CCCOc1ccc(N2C(=O)CC(N3CCN(Cc4ccccc4)CC3)C2=O)cc1` (stereo not drawn) it was 2.2%; in that of `O=C(NCc1ccc2c(c1)OCO2)NC12CC3CC(CC(C3)C1)C2`, -8.3%; in that of `CCOc1ccc(C(=O)N2CCN(c3ccccc3OC)CC2)cc1`, -1.2%.
As for `CC(Nc1cc(=O)n(C)c(=O)n1C)c1ccccc1` (stereo not drawn), the displacement is 10%.
In the case of `Cc1ccc(S(=O)(=O)/N=C2\C=C(Sc3ncn[nH]3)C(=O)c3ccccc32)cc1` it was 42.2%; in that of `COc1ccccc1NC(NC(=O)c1ccco1)C(=O)c1ccccc1` (stereo not drawn), -0.4%; in that of `O=C(O)c1cc2ccc(O)cc2oc1=O`, 26.4%.
`O=C1C(Cc2cccc([N+](=O)[O-])c2)S/C(=N/N=C/c2ccccc2)N1c1ccccc1` (stereo not drawn): the displacement came out at 7.7%.
In the case of `Nc1c(C(=O)O)nnn1Cc1ccccc1`, the displacement is 5%.
Consider `COc1ccc2nc(NC(=O)C(C)(C)C)sc2c1`, for which the displacement was 3.6%.
Take `Cc1cc(=O)n2[nH]c(-c3ccccc3)cc2n1`: the displacement is -2.2% and 5.7%.
Regarding `COc1ccc(OC)c(NC(=O)C2C3CCC(O3)C2C(=O)O)c1` (stereo not drawn), the displacement is 6.9%.
In the case of `Cc1ccnc(NC(=O)COc2ccc(C)c(C)c2)c1`, the displacement amounted to 3%.
In the case of `CCOC(=O)COc1ccc(/C=C2/NC(=S)NC2=O)cc1OC` it was -3.3%.
On to `O=C1CCSc2nc(-c3cccc([N+](=O)[O-])c3)nn21`, for which the displacement came out at 8.8%.
In the case of `COc1ccc(CCNC(=O)c2c(-c3ccccc3Cl)noc2C)cc1OC`, the displacement was found to be 13.1%.
`CC(C)(C)c1cc(Br)ccc1OCC(=O)Nc1ccccc1Cl`: the displacement is -14.6%.
For `Cn1cccc1CN1CCN(Cc2cc(Br)ccc2O)CC1` the value was 10.7%; for `O=C(Nc1ccccc1)c1ccccc1N=Cc1ccc(Cl)c([N+](=O)[O-])c1`, 6.6%; for `CC1CN(C)C(C)CC1NCc1ccccc1` (stereo not drawn), 0.1%.
For `CCC1(C)CC(CC#N)(c2ccc(OC)cc2)CCO1` (stereo not drawn), the displacement was -3.1%.
For the compound `COc1cc(NC(=O)c2cccc(F)c2)cc(OC)c1`, the displacement is 2.1%.
Take `O=C(COc1ccc(Cl)cc1Br)Nc1ccc2c(c1)OCO2`: the displacement is -6.7%.
As for `COC(=O)C1C(=O)CC(C)(O)C(C(=O)OC)C1c1ccc2c(c1)OCO2` (stereo not drawn), the displacement is -3.7%.
For `CC1CN(Cc2c(O)ccc3c(-c4ccccc4)cc(=O)oc23)CC(C)O1` (stereo not drawn) the value was 10.9%; for `O=C(/C=C/c1cc(Br)cs1)Nc1ccccc1`, 11.3%.
Consider `O=C1N/C(=N/N=C/c2ccccc2)SC1Cc1cccc(Cl)c1` (stereo not drawn), for which the displacement amounted to 22.9%.
`CC(=O)N(C)c1ccc(NC(=O)c2ccccc2I)cc1`: the displacement was -7.3%.
For `CN1CCN(C(=O)CC23CC4CC(CC(C4)C2)C3)CC1`, the displacement is -9.2%.
As to `O=C(NCc1ccco1)c1c(Cl)cccc1Cl`, the displacement is -1.9%.
Regarding `CCCC(=O)c1ccc(N2CCN(C(=O)CCC)CC2)c(F)c1`, the displacement was found to be 7.1%.
In the case of `CCCC/C(C)=N\NC(=O)C(=O)NC(C)C`, the displacement was -9.4%.
As for `NC(=O)c1cc(NC(=O)c2cccc(F)c2)ccc1Cl`, the displacement was determined as 11.8%.
On to `COc1ccc(/C(O)=C/c2nc3ccccc3oc2=O)cc1`, for which the displacement is -1.7%.
On to `CCOc1cc(/C=C2/SC(=S)N(Cc3ccccc3)C2=O)ccc1OC(=O)c1cccc([N+](=O)[O-])c1`, for which the displacement is 7.5%.
For `O=c1c2c3c(sc2n2c(=S)[nH]nc2n1-c1ccccc1)CCCC3`, the displacement is -9%.
With `CCCc1ccc(-c2nc(Cc3ccccc3OC)no2)cc1`, the displacement was -7.7%.
For the compound `COCCOC(=O)c1c(C)oc2ccc(OC(=O)c3sc4ccccc4c3Cl)cc12`, the displacement is 7.3%.
Take `CCOC(=O)c1c(NC(=O)c2ccc([N+](=O)[O-])cc2)sc2c1CCN(C(=O)OCC)C2`: the displacement is -5.4%.
`COC(=O)c1cc(C(=O)NC2CCCCCC2)cc([N+](=O)[O-])c1`: the displacement was 5.9%.
Take `CC(=O)Nc1ccccc1C(=O)N1CCN(c2ccccc2)CC1`: the displacement is -5.1%.
In the case of `O=C(NCc1ccccc1Cl)C(=O)Nc1ccccc1F`, the displacement turned out to be 3.8%.
`O=[N+]([O-])c1ccc(-c2cc(-c3ccc(I)cc3)n[nH]2)cc1`: the displacement was determined as 0.5%.
Consider `COc1ccc(Cc2nnc(N)s2)cc1`, for which the displacement came out at 10.9%.
In the case of `CC1=CC(=O)C=C/C1=N/OC1=C(O/N=C2/C=CC(=O)C=C2C)C(=O)c2ccccc2C1=O` it was 20.8%; in that of `Cc1ccc(O)c(NC(=O)c2cc3n(n2)C(C(F)(F)F)CC(c2ccc(F)cc2)N3)c1` (stereo not drawn), 0.7%.
With `COc1ccc(C(=O)Nc2ccc(F)c([N+](=O)[O-])c2)cc1Br`, the displacement worked out at 15%.
In the case of `CC(=O)N1c2ccccc2C(N(C(=O)c2ccc([N+](=O)[O-])cc2)c2ccccc2)CC1C` (stereo not drawn), the displacement was -4%.
In the case of `CCOC(=O)/C(C#N)=C/c1ccc(OCc2c(C)no[n+]2[O-])c(OC)c1` it was -3.8%.
With `Cn1c(O)c(N=NS(=O)(=O)c2ccccc2)c2ccccc21`, the displacement turned out to be 10%.
For the compound `Cc1ccc(NCCCC(=O)N/N=C/c2cccs2)cc1`, the displacement was -6.6%.
`CCOC(=O)C1=C(C)NC(=S)NC1c1cccc(Br)c1` (stereo not drawn): the displacement amounted to 8.9%.
Turning to `O=C(NCCc1ccccc1)c1ccc(Cl)c([N+](=O)[O-])c1`, the displacement came out at 2.2%.
As for `O=C(COc1ccccc1Cl)Nc1ccc(O)cc1C(=O)O`, the displacement turned out to be 10%.
`Cc1cccc(/C=C2/SC(=S)N(CN3CCCCC3)C2=O)c1`: the displacement was found to be 11.3%.
In the case of `CC(C)(C)NC(=O)NC12CC3CC(CC(C3)C1)C2` it was 17.9%; in that of `O=C(Nc1nccs1)c1ccc(N2C(=O)CCC2=O)cc1`, 7.8%.
As to `O=C(CC1Sc2ccc(C(F)(F)F)cc2NC1=O)Nc1cccc(Cl)c1` (stereo not drawn), the displacement is -13.4%.
For `Cc1cc(C=O)c(C)n1-c1cccc([N+](=O)[O-])c1`, the displacement was determined as 12.3%.
In the case of `O=C(NC(Nc1ccc(Br)cc1)C(=O)c1ccccc1)c1ccco1` (stereo not drawn) it was 4.5%; in that of `CCOc1ccc(NC(=O)/C=C/c2cccc(C(F)(F)F)c2)cc1`, 15.4%.
With `COc1ccc(OC)c(NC(=O)c2ccc(-c3ccc(C)c(Cl)c3)o2)c1`, the displacement came out at 0.4%.
For `CC1CCCN(Cc2c(O)[nH]c(=S)[nH]c2=O)C1` (stereo not drawn), the displacement was -4%.
Regarding `Cc1ccc(-c2nnc(NC(=O)Nc3ccccc3)s2)cc1C`, the displacement came to 9.8%.
As for `CCCCNC(=O)c1cn(-c2ccccc2)nc1-c1ccccc1`, the displacement was found to be 17.4%.
In the case of `CCOC(=O)c1nc(NC(=O)c2cc3ccccc3o2)sc1C` it was -2.7%; in that of `Cc1ccc(/C(O)=C2/C(=O)C(=O)N(CCCCCC(=O)O)C2c2cccc([N+](=O)[O-])c2)cc1` (stereo not drawn), 25.6%; in that of `O=C(CSCC(=O)Nc1cccc(C(F)(F)F)c1)Nc1ccccc1`, -10.4%.
Regarding `O=C(NNC(=O)c1ccc2c(c1)OCO2)NC1CCCCC1`, the displacement was 10.1%.
In the case of `Cc1ccc(S(=O)(=O)N/N=C/c2ccc(-c3ccc([N+](=O)[O-])cc3Br)o2)cc1` it was 2.5%.
In the case of `O=C(Nc1ccccc1O)c1ccc(-c2ccc(Cl)cc2Cl)o1` it was 8.6%; in that of `COC(=O)c1cc(C(=O)Nc2cccc(Br)c2)cc([N+](=O)[O-])c1`, 5.9%.
For `COc1ccc(OC)c(NC(=O)CSc2nc3ccccc3s2)c1`, the displacement is -2.8%.
For the compound `CCC(C(=O)Nc1ccc(Br)cc1F)c1ccccc1` (stereo not drawn), the displacement was -2.6%.
Turning to `O=[N+]([O-])c1ccc(Sc2nc3ccccc3s2)nc1`, the displacement turned out to be 49.1%.
For `O=C(Nc1ccc(Br)cc1)c1cnccn1`, the displacement is 26.7%.
As to `CCOC(=O)c1c(CN2CCOCC2)n(C)c2cc(Br)c(O)cc12`, the displacement worked out at 16.2%.
Consider `CCN(CC)C(=O)c1sc(NC(=O)c2ccco2)c(C(=O)OC(C)C)c1C`, for which the displacement was -1.8%.
In the case of `O=C(c1ccccc1SCc1ccccc1)N1CCOCC1` it was -8.4%.
Take `Clc1ccccc1CSc1nc2ccccc2o1`: the displacement is -4.2%.
With `N#Cc1c(NC(=O)c2cc3nc(-c4ccccc4)cc(C(F)(F)F)n3n2)sc2c1CCCC2`, the displacement was -10.7%.
Turning to `CC(=O)c1sc(NC(=O)c2cc(Cl)ccc2[N+](=O)[O-])nc1C`, the displacement is 6.6%.
In the case of `CCOc1ccccc1-c1nc(SCC(N)=O)n[nH]1` it was -15.6%; in that of `COc1cc(N=Cc2c(O)n(-c3ccc(Cl)cc3)c(=O)[nH]c2=O)cc(OC)c1`, 70.5%.
For `O=C(NC1CCCCC1)C1CC2c3ccccc3C1c1ccccc12` (stereo not drawn), the displacement was -5.2%.
As to `COc1ccc(C(=O)N2CCN(C(=O)c3ccncc3)CC2)cc1`, the displacement came out at 18.7%.
In the case of `COCCOC(=O)c1c(C)oc2ccc(OCc3cccc(Br)c3)cc12`, the displacement came out at 9.3%.
Take `COc1ccc(N(CC(=O)NCc2ccco2)S(=O)(=O)c2ccccc2)cc1Cl`: the displacement turned out to be 5.3%.
For the compound `NC(=O)c1ccc(NC(=O)c2ccccc2C(=O)O)cc1`, the displacement came out at 1.8%.
Regarding `CCC1CCc2c(sc(NC(=O)c3cccs3)c2C(N)=O)C1` (stereo not drawn), the displacement is -7.2%.
In the case of `CN1CCN(CN2C(=O)C(=O)c3ccccc32)CC1`, the displacement is -3%.
For `O=C1NC(=Nc2ccccc2)S/C1=C/c1cccc(C(F)(F)F)c1` the value was -12.5%.
`CCN(CC)S(=O)(=O)c1cc(C(=O)Nc2cccc(C(=O)O)c2)ccc1Cl`: the displacement is -5.2%.
`COC(=O)C1=C(C(=O)OC)SC(=C2C(=S)C(C)(C)N(C(=O)c3cccc(F)c3)c3ccc(OC)cc32)S1`: the displacement is -7.9%.
Take `CCC(=O)Oc1ccc2c(C)c(CC)c(=O)oc2c1C`: the displacement came to 4.6%.
As to `Cc1nc2cc(-c3ccccc3Cl)[nH]n2c(=O)c1Cl`, the displacement is 11.8%.
On to `CC1=C(C(=O)OCC2CCCO2)C(c2ccccc2Cl)NC(=O)N1` (stereo not drawn), for which the displacement amounted to 10.5%.
With `Cn1cc(/C=C/c2nc3ccccc3c(=O)n2Cc2ccccc2)c2ccccc21`, the displacement worked out at 136%.
`CCC(=O)NC(Nc1ccc(OC)cc1)(C(F)(F)F)C(F)(F)F`: the displacement was -2.7%.
`COc1ccccc1OCCOc1c(I)cc(/C=C2/SC(=S)N(C)C2=O)cc1OC`: the displacement worked out at 1.9%.
For `O=C1CC(Cc2ccc(Cl)cc2)C(=O)N1c1ccc2ccccc2n1` (stereo not drawn), the displacement is 2.3%.
On to `CCc1c(C)nn2cn[n+](Cc3ccccc3Cl)c2c1[O-]`, for which the displacement was 8.6%.
For `COc1ccc(/C=C/C(=O)Nc2ccc(F)cc2)cc1Br`, the displacement was 7.8%.
In the case of `O=C1C=CC(=O)C(c2cccc(Cl)c2)=C1` it was 23.9%.
In the case of `COc1cc(/C=N/N2CCN(Cc3cccc4ccccc34)CC2)cc(Br)c1O`, the displacement was found to be 19%.
